Hit rate of the full screen: of about 300,000 compounds, about 1,200 (0.4%) were called active. Inconclusive means that the source gave no clear call. Such entries were picked first, then a sample of the others. The call rests on the fitted dose curve; in most records, active means well fitted inhibition curve with a large enough effect; inconclusive means small, poorly fitted or top-dose-only effect, or another doubt; inactive means no such curve, though single readings can be large or run the other way. Potencies beside an inconclusive call are fits to weak or partial responses and may not hold up.
Target: Lysosomal alpha-glucosidase (Homo sapiens) (UniProt P10253)
Assay: qHTS Assay for Inhibitors and Activators of Human alpha-Glucosidase Cleavage of Glycogen;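 on activity change, negative = inhibition: 0% = full enzyme reaction and -100% = no-enzyme basal signal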
Settings: recombinant GAA, glycogen substrate, Amplex Red glucose oxidase fluorescence; activity change, negative = inhibition: at 76.4 µM (top of the series) unless noted
Method in brief: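 Recombinant enzyme (4 nM final) with compounds titrated up to 77 uM and bovine liver glycogen (30 ug) in citrate pH 5.0, 0.01% Tween-20, 37 C 40 min. Released glucose detected by Amplex Red/glucose oxidase (Ex 573/Em 610); AC50 from Hill fits.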
Potency means the concentration at half of the fitted maximal effect.

| SMILES | Potency | activity change, negative = inhibition |
| --- | --- | --- |
| COc1cc(/C=N/NC(=S)Nc2cccc(S(=O)(=O)N(C)C)c2)ccc1O | inconclusive: 3.16 µM [inhibitor, full curve] |  |
| CCN1CCN(c2cc(C)c3cc(NC(=S)N4CCN(c5ccccc5F)CC4)ccc3n2)CC1 | inconclusive: 17.8 µM [inhibitor, partial curve] |  |
| CCOC(=O)C(NC(=O)c1cccc(Cl)c1)(Nc1sc2c(c1C(N)=O)CCC2)C(F)(F)F (centres undefined) | inconclusive: 31.6 µM [inhibitor, single point] |  |
| C/C(=N/NC(=O)c1ccccn1)c1c[nH]c2ccccc12 | inconclusive: 28.2 µM [inhibitor, single point] |  |
| Cc1cc2ccccn2c1C(=S)NC(=O)c1ccccc1 | inconclusive: 9.92 µM [inhibitor, partial curve] |  |
| Cc1ccc(S(=O)(=O)NCCCCCC(=O)Nc2c(C)n(C)n(-c3ccccc3)c2=O)cc1 |  | inactive: 0.426% |
| CCOC(=O)C1(Cc2cccc(OC)c2)CCN(Cc2ccc(OC)c(OC)c2)CC1 |  | inactive: -6.76% |
| CC(=O)/C=C/c1ccccc1O |  | inconclusive: 31.5% [activator] |
| CCn1c(-c2ccccc2)csc1=Nc1ccc(O)cc1 | active: 12.6 µM |  |
| COc1cc(/C=N/NC(=O)c2cccs2)ccc1O | inconclusive: 28.2 µM [inhibitor, partial curve] |  |
| O=C(NN=C1CCCC1)c1n[nH]c2c1CCCC2 | inconclusive: 35.2 µM [inhibitor, partial curve] |  |
| COc1cccc(C2CC(=O)Nc3c2c(=O)[nH]c2ncnn32)c1OC (centres undefined) |  | inactive: -0.708% [at 76.3 µM] |
| COc1cc(O)ccc1-c1nc2ccc(Br)cn2c1Nc1ccccc1C | inconclusive: 17.8 µM [inhibitor, partial curve] |  |
| COc1ccc(NC(=O)C2(S(=O)(=O)c3ccc(C)cc3)CC2)c(OC)c1 |  | inactive: -11.9% [at 76.3 µM] |
| CC1(C)SC(=S)N(/N=C/c2ccc(O)cc2)C1N(O)C(=O)Nc1ccc([N+](=O)[O-])cc1 (centres undefined) | inconclusive: 31.4 µM [inhibitor, partial curve] |  |
| COc1cc(C(c2c(C)[nH][nH]c2=O)c2c(C)[nH][nH]c2=O)ccc1OS(=O)(=O)c1ccccc1 | inconclusive: 28.2 µM [inhibitor, partial curve] |  |
| Cc1ccn2c(Nc3ccc4c(c3)OCO4)c(-c3ccc(C)o3)nc2c1 | active: 3.98 µM |  |
| CCOc1ccc(N(CC)C(=O)c2cc3c(s2)-c2ccc(Cl)cc2SC3)cc1 | inconclusive: 11.2 µM [inhibitor, single point] |  |
| COc1ccc(NC2=C(C(C)=O)C(c3ccc4c(c3)OCO4)C(C(C)=O)C(C)(O)C2)cc1 (centres undefined) | inconclusive: 4.43 µM [inhibitor, full curve] |  |
| CC1(C)CC(=O)C2=C(C1)NC1=C(C(=O)c3ccccc31)C2c1cccnc1 (centres undefined) | inconclusive: 14 µM [inhibitor, partial curve] |  |
| CCOC(=O)c1ccc(NC(=O)C2CCN(S(=O)(=O)Cc3ccccc3)CC2)cc1 | inconclusive: 6.31 µM [inhibitor, partial curve] |  |
| CCn1c2ccc(F)cc2c2nnc(NN)nc21 | inconclusive: 35.5 µM [activator, single point] |  |

| SMILES | Potency | activity change, negative = inhibition |
| --- | --- | --- |
| CCCCNC(=O)c1onc(CSc2cccc3ccccc23)c1C(=O)O | inconclusive: 3.16 µM [inhibitor, partial curve] |  |
| CCCOc1ccccc1C(=O)N1CCCCC1CCN1CCCCC1 (centres undefined) |  | inactive: -8.1% [at 76.3 µM] |
| C/C(=N\NC(=O)c1cc2ccccc2cc1O)c1ccccn1 | inconclusive: 50.1 µM [inhibitor, single point] |  |
| N#Cc1c(Cl)cccc1N1CCC(C(N)=O)CC1 | active: 4.43 µM |  |
| O=C(Nc1ccc(S(=O)(=O)Nc2nccc(C3Cc4ccccc4C(=O)O3)n2)cc1)c1ccccc1 (centres undefined) | inconclusive: 11.2 µM [inhibitor, single point] |  |
| Cc1ccc(O)c(NC(=O)C2CC(c3c(F)cccc3Cl)=NO2)c1 (centres undefined) | inconclusive: 39.8 µM [inhibitor, partial curve] |  |
| N#Cc1ccc(-c2csc(NNC(=O)c3ccc(Br)cc3)n2)cc1 | inconclusive: 28.2 µM [inhibitor, single point] |  |
| Cc1ccc(C(=O)Oc2ccc3c(c2)ncn3C)cc1 | inconclusive: 39.5 µM [inhibitor, single point] |  |
| Cc1ccc(-c2nnc(Nc3ccc(O)cc3)c3ccccc23)cc1S(=O)(=O)NCC1CCCO1 (centres undefined) | active: 15.8 µM |  |
| Cc1ccc(C)c(CN2C(=O)c3ccccc3S(=O)c3ccc(C(=O)NCc4ccco4)cc32)c1 (centres undefined) |  | inactive: -5.59% [at 76.3 µM] |
| C/C(=N\NC(=O)c1c(C)nc2ccccn12)c1ccc(N2CCOCC2)cc1 | inconclusive: 20 µM [inhibitor, partial curve] |  |
| COc1cc2[nH]c3c(=O)n(N)c(=O)[nH]c3c2cc1OC | inconclusive: 8.91 µM [inhibitor, single point] |  |
| COC(=O)c1ccccc1NC(=O)c1cc(=O)c2ccc(C)c(C)c2o1 |  | inactive: -7.18% [at 76.3 µM] |
| COc1cc(/C=N/Nc2nc3ccccc3[nH]2)ccc1O | active: 22.2 µM |  |
| COc1ccc(NC(=O)c2cc(-c3cc(C)cc(C)c3O)n[nH]2)cc1Cl | inconclusive: 28 µM [inhibitor, single point] |  |
| Oc1ccc(Nc2nc(-c3ccc(Cl)cc3)nc3ccccc23)cc1 | inconclusive: 31.6 µM [inhibitor, partial curve] |  |
| CCc1[nH]c(=S)c(C#N)c(-c2ccccc2)c1C(=O)OC | inconclusive: 28.2 µM [inhibitor, partial curve] |  |
| COc1cc(/C=C2/NC(=O)N(Cc3ccccc3F)C2=O)ccc1O | active: 22.4 µM |  |
| COc1ccc2[nH]c(C(=O)O)c(NS(=O)(=O)c3ccc(F)cc3)c2c1 | inconclusive: 11.2 µM [inhibitor, single point] |  |
| O=C1CCC/C1=C/Nc1ccc2c(c1)OCO2 | inconclusive: 24.9 µM [inhibitor, partial curve] |  |
| CCOC(=O)c1c(/N=C/c2ccc(C)cc2O)sc2c1CCN(C)C2 |  | inactive: 1.89% |
| CCn1c(-c2cc(-c3ccc(C)cc3)nc3ccccc23)n[nH]c1=S | inconclusive: 20 µM [inhibitor, partial curve] |  |

Reference: PubChem BioAssay AID2100 (National Center for Advancing Translational Sciences (NCATS), 2009)
